# Results as given in the supplement of paper PMC12217912.
# Some of the results follow. Sequences were assembled here from the parent chain. Values near 0.05 are background.
# B1: TEV protease; numbered along this chain (parent)
# chain: MGESLFKGPRDYNPISSSICHLTNESDGHTTSLYGIGFGPFIITNKHLFRRNNGTLVVQSLHGVFKVKDTTTLQQHLVDGRDMIIIRMPKDFPPFPQKLKFREPQREERICLVTTNFQTKSMSSMVSDTSCTFPSGDGIFWKHWIQTKDGQCGSPLVSTRDGFIVGIHSASNFTNTNNYFTSVPKNFMELLTNQEAQQWVSGWRLNADSVLWGGHKVFMVKPEEPFQPVKEATQL
# Variants of: B1
# Test: raw area under fraction-flipped curve 0-4 h after induction (AUC4h, not background-subtracted), DNA-recorder readout of cleavage of the substrate (dimensionless); higher = more cleavage of the substrate by the protease variant
# Details: temperature: 34 °C; time window: 0-4 h after rhamnose induction
# Description: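 In vivo DNA recorder in E. coli TOP10(DE3) ΔrhaA at 34 °C. Each TEVp single-site mutant (parent TEVp 0) is paired with a single-site variant of the 7-mer TEVs (canonical ENLYFQ|S). The substrate sits between flexible linkers in a Bxb1-sfGFP-TEVs-SsrA fusion, so cleavage stabilises Bxb1 and speeds flipping of a recombination array, read by NGS. The value is the raw area under the fraction-flipped curve over 0-4 h after rhamnose induction (AUC4h), with ≥20 reads per time point. It is not background-subtracted; inactive controls average about 0.047.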
# 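Further: Bxb1 expression induced with 0.2% (w/v) L-rhamnose at OD600 near 0.5, cultures sampled hourly, flipped fraction per protease–substrate barcode pair counted by paired-end Illumina sequencing.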
Variant,area with substrate ENLDFQS,area with substrate ENLFFQS,area with substrate ENLGFQS,area with substrate ENLKFQS,area with substrate ENLNFQS,area with substrate ENLPFQS,area with substrate ENLQFQS,area with substrate ENLWFQS,area with substrate ENLEFQS,area with substrate ENLHFQS,area with substrate ENLIFQS,area with substrate ENLMFQS,area with substrate ENLRFQS,area with substrate ENLSFQS,area with substrate ENLVFQS,area with substrate ENLLFQS,area with substrate ENLTFQS
D137F,0.0409,0.0769,0.0586,0.074,0.082,0.0491,0.0891,0.0818,–,–,–,–,–,–,–,–,–
E3R,0.061,0.0742,0.0666,0.0685,0.0575,–,0.0401,–,0.0395,0.0703,0.0933,0.0678,0.0671,0.0715,0.0828,–,–
V229K,0.0599,0.0989,–,–,0.0706,0.0444,0.0777,–,0.0588,0.0754,–,–,–,0.0583,–,0.0766,–
L156R,0.0327,0.0536,0.0378,0.0507,–,0.0492,–,–,–,0.0511,–,0.0714,–,0.0582,0.0562,–,0.0506
N116Y,0.0729,0.08,–,–,0.0417,0.0498,0.0674,–,0.0391,–,–,–,0.0772,0.0638,0.07,0.0623,–
P94W,0.0464,0.0841,–,0.0744,0.0627,0.0527,–,–,–,0.0728,0.0835,–,0.0768,0.0566,0.092,0.116,–
K98F,0.0591,0.0795,0.0649,0.0811,0.0591,–,–,0.0708,–,–,–,–,–,0.0446,–,0.0836,–
T23K,0.0695,0.0772,0.0565,0.0742,0.058,0.0593,–,0.0594,0.0655,0.064,–,–,0.072,0.0645,–,0.0684,–
Y179A,0.051,0.0571,–,–,–,–,–,–,0.0536,–,–,–,0.0591,0.0638,–,–,0.0798
